A short description of this test: qHTS drug screen for cell cycle checkpoint inhibitors in PARPi-resistant BRCA-mutant ovarian cancer cell lines. (AID 1963452). The settings on record: PEO1/OlaR viability, CellTiter-Glo luminescence, 96 h. In outline: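 PEO1, PEO4 and PEO1/OlaR ovarian cancer cells, 600 per well, exposed 96 h at 37C to a dilution series. Viability read by CellTiter-Glo luminescence, normalized to DMSO and empty wells; activity summarized as Z-AUC.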
Background: Quantitative high-throughput screening tests each substance at several concentrations.

[1] abbreviates: measured here: PEO1 parental viability.

The values that follow come from PubChem BioAssay (NCATS).

The AC50 is the midpoint of the concentration-response curve, whichever way the signal moves.

Values joined by “and” are separate entries in the source; they are usually repeats but may differ in a detail not shown here. Equal values may be shown once. Some of the results follow. The main result of the screen is listed elsewhere. These columns were measured beside it and carry no call. Potencies come from curve fits of mixed quality, noted in brackets.
Tags tell the direction and shape of the fitted curve.

With `OC1CCC(Oc2cccc3cnc(Nc4ccc5nc[nH]c5c4)nc23)CC1` (configuration not stated), the AC50 is 0.776 µM [falling, full curve] under setting [1] and 0.776 µM [falling, full curve, poor fit] (measured here: PEO4 viability).

As for `C[C@@H](Oc1ccc2[nH]nc(/C=C/c3cnn(CCO)c3)c2c1)c1c(Cl)cncc1Cl`, the concentration at half-maximal activity (AC50) was 2.75 µM [falling, partial curve] under setting [1] and 1.95 µM [falling, partial curve, poor fit] (measured here: PEO4 viability).

As to `CC(C)(C)NC(=O)Nc1cccc(Nc2ncc(F)c(NC(C)(C)CO)n2)c1`, the half-maximal activity concentration (AC50) under setting [1] was 15.5 µM [falling, partial curve, poor fit] and the AC50 (measured here: PEO4 viability) is 6.92 µM [falling, partial curve, poor fit].

Turning to `C=C1C(=O)O[C@H]2[C@H]1CC/C(C)=C/CC[C@@]1(C)O[C@@H]21`, the concentration at half-maximal activity (AC50) runs as follows: under setting [1], 17.4 µM [falling, single point]; (measured here: PEO4 viability) 17.4 µM [falling, partial curve].

Turning to `NC(=NCCCCCCN=C(N)N=C(N)Nc1ccc(Cl)cc1)N=C(N)Nc1ccc(Cl)cc1`, the AC50 by setting is: under setting [1], 12.3 µM [falling, partial curve]; (measured here: PEO4 viability) 7.76 µM [falling, partial curve].

Regarding `O=c1[nH]c(=O)n([C@H]2C[C@H](O)[C@@H](CO)O2)cc1C(F)(F)F`, the AC50 is 5.49 µM [falling, partial curve] under setting [1] and 4.9 µM [falling, partial curve, poor fit] (measured here: PEO4 viability).

In the case of `CNC(=O)Cn1cc(-c2ccc3c(c2)C(F)CC32NC(=O)N(CC(=O)N(Cc3ccc(F)cc3)C(C)C(F)(F)F)C2=O)cn1` (configuration not stated), the AC50 reads like this: under setting [1], 1.1 µM [falling, full curve, poor fit]; (measured here: PEO4 viability) 0.138 µM [falling, full curve, poor fit].

For `CC(C)(C)c1cc(C(C)(C)C)c(NC(=O)c2c[nH]c3ccccc3c2=O)cc1O`, the half-maximal activity concentration (AC50) is, setting by setting: under setting [1], 17.4 µM [falling, single point]; (measured here: PEO4 viability) 24.5 µM [falling, single point].

Turning to `CNCCCOc1cc(F)c(-c2c(Cl)nc3ncnn3c2N[C@@H](C)C(F)(F)F)c(F)c1`, the half-maximal activity concentration (AC50) reads like this: under setting [1], 0.0195 µM [falling, full curve]; (measured here: PEO4 viability) 0.049 µM [falling, full curve].

For the molecule `C=C1C[C@@H]2CC[C@@]34C[C@H]5O[C@H]6[C@@H](O3)[C@H]3O[C@H](CC[C@@H]3O[C@H]6[C@H]5O4)CC(=O)C[C@@H]3[C@@H](OC)[C@@H](C[C@H](O)CN)O[C@H]3C[C@H]3O[C@@H](CC[C@@H]1O2)C[C@@H](C)C3=C`, the AC50 under setting [1] was 0.0018 µM [falling, full curve] and the concentration at half-maximal activity (AC50) (measured here: PEO4 viability) was 0.0018 µM [falling, full curve].

As for `CCn1c(=O)c(-c2ccc(Cl)cc2Cl)cc2cnc(Nc3ccc(N4CCNCC4)c(F)c3)nc21`, the AC50 was 2.45 µM [falling, full curve] under setting [1] and 3.09 µM [falling, full curve] (measured here: PEO4 viability).

On to `CC(=O)Nc1cc(Oc2ccc3c(nc(Nc4ccc(F)cc4F)n3C)c2C)ccn1`, for which the AC50 by setting is: under setting [1], 21.9 µM [falling, single point]; (measured here: PEO4 viability) 0.309 µM [falling, full curve].

For `Cc1ccc(NS(=O)(=O)c2cccc(C#N)c2)c2[nH]cc(C#N)c12`, the concentration at half-maximal activity (AC50) under setting [1] is 1.38 µM [falling, full curve] and the AC50 (measured here: PEO4 viability) was 0.245 µM [falling, full curve].

With `CNCCn1c(=O)c2cc(OC)c(OC)cc2c2cnc3cc4c(cc3c21)OCO4`, the AC50 was 0.0071 µM [falling, full curve] under setting [1] and 0.0283 µM [falling, full curve] (measured here: PEO4 viability).

Regarding `Cc1ccc(S(=O)(=O)Nc2cc(-c3ccc(C#N)s3)ccc2C)cc1`, the AC50 reads like this: under setting [1], 0.049 µM [falling, full curve]; (measured here: PEO4 viability) 0.0436 µM [falling, full curve].

Turning to `Cc1cc(C(=O)Nc2cc(Oc3ccc4nc(NC(=O)C5CC5)cn4n3)ccc2C)n(C)n1`, the AC50 is 17.4 µM [falling, partial curve] under setting [1] and 13.8 µM [falling, partial curve] (measured here: PEO4 viability).

In the case of `CCC1CCCCN1C(=O)n1ncc(C(O)(c2ccccc2)c2ccccc2)n1` (configuration not stated), the AC50 reads like this: under setting [1], 24.5 µM [falling, single point]; (measured here: PEO4 viability) 13.8 µM [falling, partial curve].

With `O=C(NOCCO)c1cc(CN2OCCCC2=O)c(F)c(F)c1Nc1ccc(I)cc1F`, the AC50 under setting [1] is 0.195 µM [falling, full curve] and the AC50 (measured here: PEO4 viability) is 0.389 µM [falling, full curve].

As for `O=C(O)CC1CCC(c2ccc(-c3ccc(Nc4ccc(C(F)(F)F)nc4)cn3)cc2)CC1` (configuration not stated), the concentration at half-maximal activity (AC50) is 4.9 µM [rising, partial curve] under setting [1] and 0.123 µM [falling, single point] (measured here: PEO4 viability).

On to `CON(C)C(=O)N1N=C(c2cc(F)ccc2F)S[C@@]1(CCCN)c1ccccc1`, for which the AC50 by setting is: under setting [1], 0.0098 µM [falling, full curve]; (measured here: PEO4 viability) 0.0087 µM [falling, full curve].

As for `CN1CCN(Cc2ccc(Nc3ncc(Cl)c(Nc4ccccc4S(=O)(=O)N(C)C)n3)cc2)CC1`, the AC50 by setting is: under setting [1], 0.178 µM [falling, full curve]; (measured here: PEO4 viability) 0.071 µM [falling, full curve].

Take `N#Cc1cc2cc(CN3CCC(Nc4ncnc5sc(CC(F)(F)F)cc45)CC3)c(O)cc2n1Cc1cn[nH]c1`: the AC50 was 15.5 µM [falling, partial curve] under setting [1] and 17.4 µM [falling, partial curve] (measured here: PEO4 viability).

In the case of `Cc1c(F)cccc1NC(=O)Nc1ccc(Cl)c(S(=O)(=O)[C@H]2CCCNC2)c1O`, the AC50 by setting is: under setting [1], 13.8 µM [rising, partial curve, poor fit]; (measured here: PEO4 viability) 9.77 µM [rising, partial curve, poor fit].

With `O=C(c1ccc(F)cc1)N1CCC[C@H](c2nc(-c3ccc(F)cc3)no2)C1`, the half-maximal activity concentration (AC50) by setting is: under setting [1], 15.5 µM [falling, partial curve]; (measured here: PEO4 viability) 15.5 µM [falling, single point].

`N#C/C(=C1/Nc2ccccc2S1)c1ccnc(OCc2ccc(CN3CCOCC3)cc2)n1`: the AC50 by setting is: under setting [1], 19.5 µM [falling, single point]; (measured here: PEO4 viability) 12.3 µM [falling, partial curve].

In the case of `CCCCNc1ncc2c(-c3ccc(CN4CCN(C)CC4)cc3)cn(C3CCC(O)CC3)c2n1` (configuration not stated), the concentration at half-maximal activity (AC50) runs as follows: under setting [1], 4.9 µM [falling, full curve] and 13.8 µM [falling, partial curve, poor fit]; (measured here: PEO4 viability) 977 nM [falling, full curve] and 8.71 µM [falling, partial curve, poor fit].

Take `Cn1ncnc1[C@H]1c2n[nH]c(=O)c3cc(F)cc(c23)N[C@@H]1c1ccc(F)cc1`: the half-maximal activity concentration (AC50) is 0.0977 µM [falling, full curve] under setting [1] and 6.16 µM [falling, partial curve] (measured here: PEO4 viability).

For `NC(=O)c1cnc(N[C@@H]2CCCC[C@@H]2N)nc1Nc1cccc(-n2nccn2)c1`, the concentration at half-maximal activity (AC50) by setting is: under setting [1], 12.3 µM [falling, partial curve]; (measured here: PEO4 viability) 19.5 µM [falling, partial curve].

As to `CN1C/C=C/CCOc2cccc(c2)-c2ccnc(n2)Nc2cccc(c2)C1`, the concentration at half-maximal activity (AC50) is, setting by setting: under setting [1], 0.245 µM [falling, full curve]; (measured here: PEO4 viability) 0.389 µM [falling, full curve].

As for `Cc1c(C(=O)N2CCOc3ccc(-c4ccc(N)nc4)cc3C2)ccc(S(C)(=O)=O)c1F`, the concentration at half-maximal activity (AC50) was 13.8 µM [falling, partial curve, poor fit] under setting [1] and 8.71 µM [falling, partial curve] (measured here: PEO4 viability).

For the molecule `COc1ccc2cc(OCC3(C(=O)O)CN(C(=O)c4ccc(F)cc4)C3)ccc2c1`, the half-maximal activity concentration (AC50) reads like this: under setting [1], 0.0692 µM [rising, full curve, poor fit]; (measured here: PEO4 viability) 0.174 µM [rising, partial curve, poor fit].

In the case of `CC(C)(O)C1CCC(Nc2ccc3ncc(-c4cccc(C(F)(F)F)c4)n3n2)CC1` (configuration not stated), the half-maximal activity concentration (AC50) is, setting by setting: under setting [1], 8.71 µM [falling, partial curve]; (measured here: PEO4 viability) 6.92 µM [falling, partial curve].

With `O=C(C1CC1)N1CC[C@@H](Cn2c(-c3ccc(-c4ccc5occc5c4)cc3)nc3cnccc32)C1`, the half-maximal activity concentration (AC50) under setting [1] was 13.8 µM [falling, single point] and the AC50 (measured here: PEO4 viability) is 11 µM [falling, partial curve, poor fit].

As to `CC(C)n1cnc2c(NCCc3ccc(O)cc3)nc(-c3csc4ccccc34)nc21`, the AC50 is 24.5 µM [falling, single point] under setting [1] and 15.5 µM [falling, partial curve] (measured here: PEO4 viability).

In the case of `COc1cc(F)ccc1-c1ncnc(Nc2cccc(CS(C)(=N)=O)c2)n1` (configuration not stated), the AC50 runs as follows: under setting [1], 1.23 µM [falling, full curve]; (measured here: PEO4 viability) 1.38 µM [falling, full curve].

Regarding `COCCOC(=O)N1CCN(S(=O)(=O)c2cc(F)c(Oc3ccc(Cl)cc3)c(F)c2)C(C(=O)NO)C1` (configuration not stated), the AC50 is, setting by setting: under setting [1], 17.4 µM [falling, partial curve]; (measured here: PEO4 viability) 21.9 µM [falling, single point].
